# Reference: PubChem BioAssay AID463173 (ICCB-Longwood Screening Facility, Harvard Medical School, 2010)
# Among all 52,000 compounds or so, about 4,300 (8.3%) were called active. Cut-off read from the data, not from the text of the source: active = survival mostly below about 52% (no sharp cut-off); inactive = mostly above about 56%. The list shows a part of the results.
# Tested on: DeltatarO mutant
# Test: S. aureus survival, RN4220 and DeltatarO strains – OD600, teichoic acid synthesis inhibitors, primary screen (AID 463173)
# Details: S. aureus RN4220 wild type/DeltatarO growth, OD600, 18 h, active compounds read low, screened at 18.75 µg/mL (by protocol)
row,SMILES,survival
1,CC(=O)NC(NC(C)=O)c1ccc2c(c1)OCO2,inactive: 80%
2,CCC1CN(C(=O)N2CCC(C(=O)NCCN(CC)CC)CC2)c2ccccc2O1 (stereo unspecified),inactive: 78%
3,Cc1ccc(Oc2c(C(F)(F)F)oc3cc(OCC(=O)NC4CCCCC4)ccc3c2=O)cc1,active: 46%
4,CC(=O)NC1=NN(C(C)=O)C2(S1)C(=O)Nc1ccccc12 (stereo unspecified),inactive: 90%
5,CCc1cccc(C)c1NC(=O)CSc1nc(C)cc(C)c1C(=O)Nc1ccccc1,inactive: 44%
6,O=C(CC(c1cccs1)N1Cc2ccccc2C1=O)Nc1ccc(F)c(Cl)c1 (stereo unspecified),inactive: 83%
7,C=CCC(CC=C)(CNC(=O)C(=O)Nc1cccc(C(F)(F)F)c1)c1ccccc1,inactive: 112%
8,Cc1nnc(NC(=O)C2CCCN(c3ncccn3)C2)s1 (stereo unspecified),inactive: 107%
9,COc1ccc(Cl)cc1NC(=O)CN(C)S(=O)(=O)c1ccc2c(c1)CCCN2C(C)=O,inactive: 78%
10,CC(CNC(=O)Cn1ccc2cc(S(=O)(=O)N3CCCCCC3)ccc21)c1ccccc1 (stereo unspecified),inactive: 109%
11,CCOC(=O)c1ccc(N2CCN(c3cccc(Cl)c3)CC2)c(NC(=O)Nc2ccc(OC)cc2OC)c1,inactive: 77%
12,O=C(Nc1ccc2nc(SCCOc3ccccc3Cl)sc2c1)c1cccs1,inactive: 49%
13,COC(=O)c1sccc1S(=O)(=O)N1CCN(c2ccccc2OC)CC1,inactive: 74%
14,CCC(=O)/C=C1/Sc2ccc(C)cc2N1CC,inactive: 97%
15,COc1ccc(/C=C2\SC(=S)N(CC(=O)NCCO)C2=O)cc1,inactive: 78%
16,COc1ccc(N2CC(C(=O)Nc3ccc(NC(C)=O)cc3)CC2=O)cc1 (stereo unspecified),inactive: 79%
17,CC(C)c1ccc(S(=O)(=O)c2cnc(SCC(=O)Nc3cccc(C(F)(F)F)c3)nc2N)cc1,inactive: 85%
18,CCOC(=O)c1cc(-c2ccc(OC)c(S(=O)(=O)Nc3ccc(OC)cc3OC)c2)on1,inactive: 120%
19,Cc1ccc(CNC(=O)c2nnc(Cc3cccc(F)c3)o2)cc1,inactive: 86%
20,CC(C)N(Cc1ccccc1)c1ncnc2c1nnn2C,inactive: 69%
21,CCOc1ccc(C(c2c(O)cc(C)n(CCOC)c2=O)N2CCN(c3ccccc3F)CC2)cc1 (stereo unspecified),inactive: 87%
22,CCN1C(=O)c2ccccc2S(=O)c2ccc(C(=O)NCc3ccc(F)cc3)cc21 (stereo unspecified),inactive: 65%
23,Cc1ccc(C)c(S(=O)(=O)c2nnn3c2nc(N2CCOCC2)c2sccc23)c1,inactive: 108%

row,SMILES,survival
1,CC(CN1CCOCC1)OC(=O)C(C)(c1ccccc1)c1ccccc1 (stereo unspecified),inactive: 69%
2,CCN(CC)S(=O)(=O)c1cc(-c2nnc(Nc3ccc(OC)c(C(N)=O)c3)c3ccccc23)ccc1C,inactive: 55%
3,Cc1ccc(Nc2c(-c3cc(Br)ccc3F)nc3cc(C)ccn23)cc1,active: 32%
4,CN(CC(=O)Nc1ccc(Cl)cc1)C1CCCCC1,inactive: 110%
5,Cc1ccc(NC(=O)c2cccc(N3CCCS3(=O)=O)c2)cc1,inactive: 78%
6,COc1ccccc1NC(=O)Cn1c(=O)n(-c2ccc(C)cc2)c(=O)c2ccc(C(=O)NCc3ccco3)cc21,inactive: 79%
7,Cc1ccc(S(=O)(=O)Cn2nnnc2CN2CCC(Cc3ccccc3)CC2)cc1,inactive: 100%
8,CCOc1ccc(NC(=O)N2CCC(CN3CCc4ccccc4C3)CC2)cc1,active: -1%
9,COc1ccccc1N1CCN(c2ccc(=O)n(CC(=O)Nc3ccc(F)c(F)c3)n2)CC1,inactive: 80%
10,O=C(NCc1cccnc1)c1nn(-c2ccccc2F)nc1CO,inactive: 94%
11,Cc1ccc(N(C(=O)COc2ccccc2C)S(=O)(=O)c2ccc(Cl)cc2)cc1,inactive: 67%
12,O=C(CCn1c(=O)c2cccn2c2ccc(F)cc21)NCCc1ccccc1,active: 42%
13,C/C(Cc1nc2ccccc2[nH]1)=N/Nc1ccccc1,active: 2%
14,CCCc1cc(C(=O)Nc2c(C)nn(Cc3ccc(C)cc3)c2C)no1,inactive: 73%
15,Cc1ccc(C)c(Nc2cc(C(=O)NC3CCCCC3)c3ccccc3n2)c1,inactive: 87%
16,CCC(=O)N1CCc2cc(CNC(=O)C(CC)c3ccccc3)ccc21 (stereo unspecified),inactive: 92%
17,COC(=O)c1ccc(Cl)cc1NC(=O)NCc1c(-n2cccc2)sc2c1CCCC2,inactive: 78%
18,CCOc1ccc(C(=O)Nc2ccc(C(=O)OCc3cc(=O)n4ccsc4n3)cc2)cc1,inactive: 94%
19,CCOC(=O)c1ccc(NC(=O)c2csc3c2CCCC3)cc1,active: 36%
20,O=C(Nc1cccc2cccnc12)c1cccc2ccccc12,active: 1%
21,COc1cccc(N2CCN(C(=O)c3cc4c(=O)n(Cc5cccs5)ccc4nc3C)CC2)c1,inactive: 69%
22,Cc1ccc(CNC(=O)Cn2ncc3c([nH]c4ccc(C)cc43)c2=O)cc1,inactive: 88%
23,Fc1ccc(N=C(CN2CCCCC2)N2CCCCC2)cc1,inactive: 80%

row,SMILES,survival
1,CCn1c(CN2CCCCC2)nc2cc(NC(=O)c3ccccc3[N+](=O)[O-])ccc21,inactive: 91%
2,CSc1ncc(C(=O)NCc2ccc(Cl)cc2)c(C(F)(F)F)n1,inactive: 102%
3,Cc1nn(-c2ccccc2)c(OC(=O)c2ccc(F)cc2)c1S(=O)(=O)c1ccccc1,inactive: 80%
4,Cc1ccc(NC(=O)c2c(C(=O)Nc3ccccc3)sc3nc(C)cc(=O)n23)c(C)c1,inactive: 52%
5,CCN(C(=O)CCNC(=O)Cn1cnc2ccccc2c1=O)c1cccc(Cl)c1,inactive: 67%
6,COc1ccc(C2=C(C)C(N3CCC(C(=O)Nc4cc(C)ccc4C)CC3)=NS2(=O)=O)cc1,inactive: 79%
7,CCCn1cc(S(=O)(=O)c2ccc(C)cc2)c(=O)c2cc(OC)c(OC)cc21,inactive: 81%
8,COc1cccc(NC(=O)C(=O)NCCc2csc(-c3ccc(C)cc3)n2)c1,inactive: 89%
9,COc1ccc(N2CCN(S(=O)(=O)CCNC(=O)COc3cccc(OC)c3)CC2)cc1,inactive: 90%
10,CCCSc1ncc(Cl)c(C(=O)Nc2c(C(=O)Nc3ccccc3)oc3ccccc23)n1,inactive: 61%
11,Cc1cccc(Cn2c(SCc3ccc(C(=O)N4CCC(C)CC4)cc3)nc3ccncc32)c1,inactive: 55%
12,N#CCSc1cccc2cccnc12,inactive: 83%
13,CCn1c(CC(=O)Nc2ccccc2)n[nH]c1=S,inactive: 80%
14,COc1ccc(CCNC(=O)c2ccc(-n3c(C)cc4c3CCCC4)cc2)cc1OC,inactive: 74%
15,CCCc1cc(=O)[nH]c(SCc2nc(-c3ccc(C)cc3)no2)n1,inactive: 78%
16,COc1ccccc1CCNC(=O)Cc1c(C)c2cc3c(C(C)(C)C)coc3c(C)c2oc1=O,inactive: 101%
17,Nc1cc(N)nc(SCc2noc(-c3ccc(Cl)cc3)n2)n1,inactive: 86%
18,CC1Oc2ccccc2N(CC(=O)Nc2ccccc2F)C1=O (stereo unspecified),inactive: 110%
19,Cc1cccc(NC(=O)Cn2cnc(S(=O)(=O)N3CCCC3)c2)c1C,inactive: 71%
20,Cc1cc(C)c2c(n1)nn1c(C)c(CCC(=O)NCc3ccccc3Cl)c(C)nc21,inactive: 82%
21,CCOc1ccc(-c2cc3nc(C4CCN(C(=O)OC(C)(C)C)CC4)c(C(=O)Nc4ccc(C)cc4Cl)cn3n2)cc1,inactive: 71%
22,O=S(=O)(c1ccc(Br)cc1)c1nnn2c1nc(Nc1cccc(C(F)(F)F)c1)c1sccc12,inactive: 74%
23,CN1CCSc2ccc(C(=O)NCc3ccccc3F)cc21,inactive: 134%

row,SMILES,survival
1,CCC1CCCCN1C(=O)/C=C/c1ccccc1Cl (stereo unspecified),inactive: 89%
2,O=C(OCC1CCCO1)c1ccc2c(c1)N(Cc1cccc(Cl)c1)C(=O)c1ccccc1S2(=O)=O (stereo unspecified),inactive: 70%
3,Cc1ccc(NC(=O)NCCOCCn2c(=O)oc3ccccc32)cc1F,inactive: 89%
4,O=C(Nc1nnc(N2CCCCCC2)s1)Nc1ccccc1C(F)(F)F,inactive: 80%
5,CCC(Sc1nc2ccccc2c2nc(CCc3c(C)n[nH]c3C)nn12)C(=O)Nc1ccc(OC)cc1 (stereo unspecified),inactive: 96%
6,Cc1cccc(-n2c(CCN3C(=O)c4ccccc4C3=O)nc3ccccc3c2=O)n1,inactive: 87%
7,COc1cc(C(=O)Nc2nc3c(s2)Cc2c(Br)ccc(OC)c2-3)cc(OC)c1OC,active: 36%
8,COc1ccc(Cl)cc1NC(=O)CSc1c2c(nc3ccccc13)CCC2,inactive: 62%
9,CCN(c1ccccc1)S(=O)(=O)c1ccc(NC(=O)c2cc(=O)c3cc(C)ccc3o2)cc1,inactive: 60%
10,O=C(c1ccc2c(c1)N(Cc1ccc(F)cc1)C(=O)c1ccccc1S2=O)N1CCOCC1 (stereo unspecified),inactive: 89%
11,COc1ccc(NC(=O)CS(=O)CC(=O)Nc2cccc(F)c2)cc1 (stereo unspecified),inactive: 98%
12,CC(=O)NC(Cc1cccc(C)c1)C(=O)NC1CCN(c2nc(C)cc(C)c2C#N)CC1 (stereo unspecified),inactive: 97%
13,CCOc1ccc(Cn2c(CNS(=O)(=O)c3c(C)cc(C)cc3C)nc3cccnc32)cc1,inactive: 60%
14,Cc1nnc(NC(=O)CSc2nccn2-c2ccc(Cl)cc2)s1,inactive: 104%
15,CCC(C)n1c(SCc2ccc(C(C)(C)C)cc2)nc2ccsc2c1=O (stereo unspecified),inactive: 81%
16,CCn1c(=O)sc2cc(NC(=O)c3cccc(OC)c3)ccc21,inactive: 71%
17,COc1ccc(C2CC(=O)c3c(C)nc(N4CCN(C=O)CC4)nc3C2)c(OC)c1 (stereo unspecified),inactive: 77%
18,Cc1ccc2[nH]c(=O)c(CN(C(=O)NC3CCCCC3)C3CCCCC3)cc2c1,inactive: 80%
19,CCN1CCN(c2nnc(-n3cccc3C(=O)Nc3cccc(OC)c3)s2)CC1,inactive: 105%
20,CCN(CC)C(=O)C1CCN(S(=O)(=O)c2ccc(C)cc2)CC1,inactive: 102%
21,O=C(Cn1ccn(-c2ccc(F)c(F)c2)c(=O)c1=O)c1ccc(F)cc1,inactive: 82%
22,CCOC(=O)CC(=O)CSc1nc2ccccc2c(=O)n1-c1ccc(C(=O)NCCOC)cc1,inactive: 102%
